What all share (assay): glycan array binding signal (z-score within array); higher = stronger binding
Conditions in all cases: glycan notation: IUPAC condensed, linker removed

Assay [1] addresses Gal(b1-4)GlcNAc(b1-3)Gal(b1-4)GlcNAc(b1-3)Gal(b1-4)GlcNAc(b1-3)Gal(b1-4)GlcNAc(b1-2)Man(a1-3)[Gal(b1-4)GlcNAc(b1-3)Gal(b1-4)GlcNAc(b1-3)Gal(b1-4)GlcNAc(b1-3)Gal(b1-4)GlcNAc(b1-2)Man(a1-6)]Man(b1-4)GlcNAc(b1-4)[Fuc(a1-6)]GlcNAc. In a few lines: (§1)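 Glycan array data were curated from 3228 arrays in the Consortium for Functional Glycomics database and kept only where the protein sequence was available. Glycan names were converted to IUPAC-condensed notation, and columns mapping to the same glycan were averaged. The binding signal is a within-array Z-score, averaged across arrays of the same protein sequence at different concentrations or buffers and across linkers. Negative Z-scores can be read as non-binding.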

The target in assay [2] is Gal(b1-4)GlcNAc(b1-3)Gal(b1-4)GlcNAc(b1-3)Gal(b1-4)GlcNAc(b1-3)Gal(b1-4)GlcNAc(b1-2)[Gal(b1-4)GlcNAc(b1-3)Gal(b1-4)GlcNAc(b1-3)Gal(b1-4)GlcNAc(b1-3)Gal(b1-4)GlcNAc(b1-6)]Man(a1-6)[Gal(b1-4)GlcNAc(b1-3)Gal(b1-4)GlcNAc(b1-3)Gal(b1-4)GlcNAc(b1-3)Gal(b1-4)GlcNAc(b1-2)Man(a1-3)]Man(b1-4)GlcNAc(b1-4)[Fuc(a1-6)]GlcNAc. In a few lines: as §1
Assay [3] deals with Gal(b1-4)GlcNAc(b1-3)Gal(b1-4)GlcNAc(b1-3)Gal(b1-4)GlcNAc(b1-3)Gal(b1-4)GlcNAc(b1-3)Gal(b1-4)GlcNAc(b1-2)Man(a1-3)[Gal(b1-4)GlcNAc(b1-3)Gal(b1-4)GlcNAc(b1-3)Gal(b1-4)GlcNAc(b1-3)Gal(b1-4)GlcNAc(b1-3)Gal(b1-4)GlcNAc(b1-2)Man(a1-6)]Man(b1-4)GlcNAc(b1-4)GlcNAc. In a few lines:
as §1

For assay [4], the target named is Gal(b1-4)GlcNAc(b1-3)Gal(b1-4)GlcNAc(b1-3)Gal(b1-4)GlcNAc(b1-3)Gal(b1-4)GlcNAc(b1-3)Gal(b1-4)GlcNAc(b1-2)Man(a1-3)[Gal(b1-4)GlcNAc(b1-3)Gal(b1-4)GlcNAc(b1-3)Gal(b1-4)GlcNAc(b1-3)Gal(b1-4)GlcNAc(b1-3)Gal(b1-4)GlcNAc(b1-2)Man(a1-6)]Man(b1-4)GlcNAc(b1-4)[Fuc(a1-6)]GlcNAc. In a few lines:
as §1

The target in assay [5] is Gal(b1-4)GlcNAc(b1-3)Gal(b1-4)GlcNAc(b1-3)Gal(b1-4)GlcNAc(b1-3)Gal(b1-4)GlcNAc(b1-3)Gal(b1-4)GlcNAc(b1-2)[Gal(b1-4)GlcNAc(b1-3)Gal(b1-4)GlcNAc(b1-3)Gal(b1-4)GlcNAc(b1-3)Gal(b1-4)GlcNAc(b1-3)Gal(b1-4)GlcNAc(b1-6)]Man(a1-6)[Gal(b1-4)GlcNAc(b1-3)Gal(b1-4)GlcNAc(b1-3)Gal(b1-4)GlcNAc(b1-3)Gal(b1-4)GlcNAc(b1-3)Gal(b1-4)GlcNAc(b1-2)Man(a1-3)]Man(b1-4)GlcNAc(b1-4)[Fuc(a1-6)]GlcNAc. In a few lines:
as §1

Assay [6] has as its target Gal(b1-4)GlcNAc(b1-3)Gal(b1-4)GlcNAc(b1-3)Gal(b1-4)GlcNAc(b1-3)Gal(b1-4)GlcNAc(b1-3)Gal(b1-4)GlcNAc(b1-3)Gal(b1-4)GlcNAc(b1-2)Man(a1-3)[Gal(b1-4)GlcNAc(b1-3)Gal(b1-4)GlcNAc(b1-3)Gal(b1-4)GlcNAc(b1-3)Gal(b1-4)GlcNAc(b1-3)Gal(b1-4)GlcNAc(b1-3)Gal(b1-4)GlcNAc(b1-2)Man(a1-6)]Man(b1-4)GlcNAc(b1-4)GlcNAc. In a few lines: as §1
Assay [7] has as its target Gal(b1-4)GlcNAc(b1-3)Gal(b1-4)GlcNAc(b1-3)GalNAc. In a few lines: as §1
For assay [8], the target named is Gal(b1-4)GlcNAc(b1-3)Gal(b1-4)GlcNAc(b1-3)[Gal(b1-4)GlcNAc(b1-3)Gal(b1-4)GlcNAc(b1-6)]GalNAc. In a few lines: as §1
For assay [9], the target named is Gal(b1-4)GlcNAc(b1-3)Gal(b1-4)GlcNAc(b1-6)[Gal(b1-3)]GalNAc. In a few lines:
as §1

The target in assay [10] is Gal(b1-4)GlcNAc(b1-3)Gal(b1-4)[Fuc(a1-3)]GlcNAc(b1-3)Gal(b1-4)[Fuc(a1-3)]GlcNAc. In a few lines: as §1
Assay [11] concerns the target Gal(b1-4)GlcNAc(b1-3)GalNAc. In a few lines:
as §1

In assay [12] the target is Gal(b1-4)GlcNAc(b1-3)[Fuc(a1-3)GlcNAc(b1-6)]Gal(b1-4)Glc. In a few lines:
as §1

Assay [13] concerns the target Gal(b1-4)GlcNAc(b1-3)[Gal(b1-4)GlcNAc(b1-6)]Gal(b1-4)GlcNAc. In a few lines:
as §1

Assay [14] concerns the target Gal(b1-4)GlcNAc(b1-3)[GlcNAc(b1-6)]Gal(b1-4)GlcNAc. In a few lines:
as §1

The target of assay [15] is Gal(b1-4)GlcNAc(b1-6)Gal(b1-4)GlcNAc. In a few lines: as §1
In assay [16] the target is Gal(b1-4)GlcNAc(b1-6)GalNAc. In a few lines: as §1
Assay [17] has as its target Gal(b1-4)GlcNAc(b1-6)[Gal(b1-3)]GalNAc. In a few lines:
as §1

Assay [18] addresses Gal(b1-4)GlcNAc(b1-6)[Gal(b1-4)GlcNAc(b1-3)]GalNAc. In a few lines: as §1
The target of assay [19] is Gal(b1-4)GlcNAc6P. In a few lines:
as §1

For assay [20], the target named is Gal(b1-6)Gal. In a few lines: as §1
The target of assay [21] is Gal3S(b1-3)GalNAc. In a few lines:
as §1

In assay [22] the target is Gal3S(b1-3)GlcNAc. In a few lines: as §1
The target of assay [23] is Gal3S(b1-3)[Fuc(a1-4)]GlcNAc. In a few lines:
as §1

Results on one molecule are retold here after the supplement of paper PMC8728848.

The list shows a part of the results.

B1: RBMC2 (Vibrio cholerae) (protein)
chain: KISVRSGFAIDAIGASASTLVGGTGGNLNAAVNVKDIKAIDLTWGKYYWGGYHLLALDFRMSNGSVISMGSKNYAYSKQTERFTVPAGSRIKGIKAWTAGWLLDGVQFELA
With B1, the “glycan array binding signal (z-score)” value was 1.76 in [1]; -0.204 in [2]; 2.36 in assay [3]; 1.79 in assay [4]; -0.216 in assay [5]; 1.18 in assay [6]. The “glycan array binding signal (z-score)” value in [7] was -0.363; in assay [8], -0.254; in [9], -0.296; in assay [10] it was -0.252; in assay [11] it was -0.364; in assay [12], -0.295. The “glycan array binding signal (z-score)” value in assay [13] was -0.357; in assay [14], -0.184; in assay [15], -0.348; in assay [16], -0.243; in [17] it was -0.013; in assay [18] it was -0.423. In addition, the “glycan array binding signal (z-score)” value in [19] was -0.292; in [20] it was -0.2; in [21], -0.23; in assay [22], -0.436; in assay [23], -0.327.
